PubChem BioAssay AID540267 (National Center for Advancing Translational Sciences (NCATS), 2011)
In all, about 340,000 compounds went through this assay and about 530 (0.16%) were called active. The inconclusive results got no clear call from the source; some entries with a clear call stand among them for comparison. No stated cut-off is given here; in the data, active means activity change below about -80%; inconclusive means between about -30% and that limit; inactive means weaker than that.

Assay: Small Molecules that selectively kill Giardia lamblia: qHTS;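 further: parasites exposed to compound for two days anaerobically before the ATP read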
Settings: Giardia lamblia trophozoite viability; at 7.66 µM; hits give low values
Method in brief: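 Giardia trophozoites, 100 cells per well, were exposed to compounds for 48 hrs at 37 deg C under anaerobic conditions; viability was then read as ATP content by bioluminescence after 15-30 min at room temperature.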
On the % scale 0 is the no-effect control and ±100 the full control effect.

For `CC(C)CC(=O)NC(=S)N1CCN(c2ccc([N+](=O)[O-])cc2Cl)CC1`, which activity change is on record?
Its activity change is inconclusive: -30.2% [inhibitor].

Which activity change does the source give for `COc1ccc(C(=O)NCc2ccncc2)cc1S(=O)(=O)NCc1ccc(Cl)cc1` here?
Its activity change is inconclusive: -30.8% [inhibitor].

Which activity change does the source give for `CN(C)C(=O)CCc1ccc2c3c([nH]c2c1)[C@]1(CCC2CCCC2)[C@@H](C(=O)N2CCOCC2)C[C@H](CC(=O)NCCN2CCOCC2)C(=O)N1CC3` here?
The activity change was inconclusive: -48.6% [inhibitor].

For `Cc1cccc(-c2nnc(SCc3cc(=O)[nH]c4ccccc34)n2C)c1`, which activity change is on record?
Its activity change is inconclusive: -48.4% [inhibitor].

With `Brc1ccc(-c2cn3ccccc3n2)s1` as the compound, how does the activity change read?
The activity change was inconclusive: -31.6% [inhibitor].

For `CC1=CC(=O)C=C(C)C1=NOC(=O)/C=C\c1ccccc1`, which activity change is on record?
Its activity change is inactive: 16.2%.

Which activity change does the source give for `CCN(CC)c1ccc2cc(C(=O)NNC(=O)c3ccc(S(=O)(=O)N4CCCCC4)cc3)c(=O)oc2c1` here?
Its activity change is inactive: 43%.

For `Cc1ccc2nc(C3CCCN3Cc3nc(CCC(C)C)no3)[nH]c2c1` (centres undefined), which activity change is on record?
Its activity change is inactive: -7.24%.

With `O=C(O)c1ccc(NCCC2=CCCCC2)c([N+](=O)[O-])c1` as the compound, how does the activity change read?
Its activity change is inactive: 17.4%.

For `c1cncc(-c2nc3cc4ccccc4cc3[nH]2)c1`, which activity change is on record?
The activity change was inconclusive: -33.7% [inhibitor].

Which activity change does the source give for `Cc1cc(-c2n[nH]c(=S)n2/N=C/c2ccccc2[N+](=O)[O-])n[nH]1` here?
Its activity change is inconclusive: -38% [inhibitor].

For `CCOC(=O)Cn1c(SC)nc2sc3c(c2c1=O)CC(C)(C)OC3`, which activity change is on record?
Its activity change is inconclusive: -32.6% [inhibitor].

For `Cc1cccc(OCC(=O)NC(=S)Nc2ccc(S(=O)(=O)NC3CCCCC3)cc2)c1`, which activity change is on record?
Its activity change is inactive: 6.38%.

Which activity change does the source give for `O=C(Nc1cccc(O)c1)c1noc2c1CCCCC2` here?
The activity change was inconclusive: -30.4% [inhibitor].

Which activity change does the source give for `Cc1ccc(NC(=O)c2ccc3nc[nH]c3c2)nc1` here?
The activity change was inconclusive: -33.6% [inhibitor].

With `Cc1cccc(NC(=O)[C@@H](CC(C)C)NC(=O)[C@@H]2Cc3ccccc3CN2)c1` as the compound, how does the activity change read?
The activity change was inconclusive: -30.2% [inhibitor].

Which activity change does the source give for `COc1cccc(/C(C#N)=C/c2c(-c3ccc(Cl)cc3)nc3c(C)cccn23)c1` here?
The activity change was inactive: -6.4%.

Which activity change does the source give for `CC1CCN(CC(O)COCCOc2ccc(Br)cc2)CC1` (centres undefined) here?
Its activity change is inactive: -4.34%.

With `COc1cccc(NC(=O)CCCN2C(=O)C3CC=CCC3C2=O)c1` (centres undefined) as the compound, how does the activity change read?
Its activity change is inconclusive: -30.1% [inhibitor].

For `O=C(COc1cccnc1[N+](=O)[O-])N1CCc2ccccc21`, which activity change is on record?
The activity change was inconclusive: -63.7% [inhibitor].

Which activity change does the source give for `Cc1cc(NS(=O)(=O)c2ccc(NC(=O)c3cc4ccccc4o3)cc2)nc(C)n1` here?
The activity change was inconclusive: -39.2% [inhibitor].

Which activity change does the source give for `COc1cc(-c2noc(C)c2C(=O)NCC[C@@H]2CCCN2C)cc(OC)c1OC` here?
Its activity change is inconclusive: -53.4% [inhibitor].

With `COc1c(OC)c(O)c2c(=O)c(O)c(-c3ccccc3)oc2c1OC` as the compound, how does the activity change read?
Its activity change is inconclusive: -36.5% [inhibitor].

Which activity change does the source give for `O=C(CSc1nc(O)cc(=O)n1-c1ccccc1)NC1CCCCC1` here?
Its activity change is inconclusive: -30.1% [inhibitor].

With `COc1ccc(OC)c2c(C)cc(N3CCCCCC3)nc12` as the compound, how does the activity change read?
Its activity change is inactive: -0.0981%.

For `Cc1ccc(S(=O)(=O)N2CCOCC2)cc1C(=O)NC(=S)N1CC(C)OC(C)C1` (centres undefined), which activity change is on record?
The activity change was inactive: 5.45%.

For `O=C(c1ccc2nc(-c3ccco3)c(-c3ccco3)nc2c1)N1CCN(c2ccccc2)CC1`, which activity change is on record?
The activity change was inactive: -2.27%.

Which activity change does the source give for `C/C(Cn1nnc([N+](=O)[O-])n1)=N\NC(=O)c1ccc(O)cc1` here?
The activity change was inconclusive: -38% [inhibitor].

With `COc1ccccc1S(=O)(=O)Nc1ccc2nc(C)sc2c1` as the compound, how does the activity change read?
Its activity change is inconclusive: -33.1% [inhibitor].

With `COCCSc1nc2c(c(=O)[nH]c(=O)n2C)n1CCCc1ccccc1` as the compound, how does the activity change read?
Its activity change is inactive: 29.4%.

With `O=C(NC(=S)Nc1cc(Cl)ccc1O)c1cccc(Br)c1` as the compound, how does the activity change read?
The activity change was inconclusive: -37.3% [inhibitor].

Which activity change does the source give for `CC(C)(C)c1cn(-c2ccccc2)c(=S)[nH]1` here?
Its activity change is inactive: 3.66%.

Which activity change does the source give for `CC(=O)NCCc1nc2cc(NC(=O)c3ccc(Cl)cc3)ccc2n1C` here?
Its activity change is inconclusive: -30.8% [inhibitor].

For `CC(C)(C)c1ccc(C(=O)NCCN2CCOCC2)cc1`, which activity change is on record?
The activity change was inactive: 51.8%.

Which activity change does the source give for `CCOC(=O)C1CCCN(C2=NC(=O)/C(=C/c3ccc(O)c(OC)c3)S2)C1` (centres undefined) here?
Its activity change is inconclusive: -42.2% [inhibitor].

Which activity change does the source give for `Cc1ccc([C@H]2C(C(=O)O)=CC[C@@H](c3cccs3)N2S(=O)(=O)c2ccc(C)cc2)cc1` here?
Its activity change is inconclusive: -36.5% [inhibitor].

With `Cc1ccc2nc(-c3cccc(N)c3)[nH]c2c1` as the compound, how does the activity change read?
The activity change was inconclusive: -33.7% [inhibitor].

For `O=C(Nc1cccc(C(F)(F)F)c1)C1CCCO1` (centres undefined), which activity change is on record?
The activity change was inconclusive: -35.6% [inhibitor].

For `CS(=O)(=O)N1CCN(c2ccccc2NC(=O)Cc2ccccc2)CC1`, which activity change is on record?
Its activity change is inconclusive: -30.5% [inhibitor].

Which activity change does the source give for `Cc1cn(C2CC(O)C(CO)O2)c(=O)n(Cc2ccccc2)c1=O` (centres undefined) here?
The activity change was inconclusive: -30.4% [inhibitor].

For `COc1ncnc2c1sc1nc(-c3ccccc3)c3c(c12)CCCC3`, which activity change is on record?
The activity change was inconclusive: -30.8% [inhibitor].

Which activity change does the source give for `CCC(=O)Nc1c2c(nn1-c1ccc([N+](=O)[O-])cc1)CS(=O)(=O)C2` here?
Its activity change is inconclusive: -33.7% [inhibitor].

With `CCn1nc(C)c(CNC(=O)Nc2ccccc2C(=O)OC)c1C` as the compound, how does the activity change read?
Its activity change is inconclusive: -39.7% [inhibitor].

With `COc1ccc(OC)c(-n2c(N)c(C(=O)NCC3CCCO3)c3nc4ccccc4nc32)c1` (centres undefined) as the compound, how does the activity change read?
The activity change was inactive: -11.6%.

With `COC(=O)c1cccc(NC(=O)c2cc3ccccc3o2)c1` as the compound, how does the activity change read?
The activity change was inconclusive: -30.7% [inhibitor].

For `O=C(COC(=O)c1cnccn1)Nc1cc(S(=O)(=O)N2CCOCC2)ccc1Cl`, which activity change is on record?
The activity change was inconclusive: -31.6% [inhibitor].

Which activity change does the source give for `N#C/C(=C(/O)CSc1nnc(Cc2cccs2)n1C1CCCCC1)c1nc2ccccc2[nH]1` here?
Its activity change is inactive: 2.97%.

Which activity change does the source give for `NC(=S)N=Nc1c(O)[nH]c2ccccc12` here?
Its activity change is inactive: -5.96%.

With `COc1ccc(C(=O)CC(SCC(NC(C)=O)C(=O)O)c2ccc(Cl)cc2)cc1OC` (centres undefined) as the compound, how does the activity change read?
The activity change was inconclusive: -53% [inhibitor].
